# Measurements as given in article PMC4336329 (PLoS ONE, 2015).
# Hit rate of the full screen: of about 310,000 compounds, about 2,200 (0.71%) showed an effect of 50% or more. The effect is printed as a negative number. The list shows a part of the results.
# Molecular target: human ether-à-go-go-related gene (hERG) potassium channel (human, UniProt Q12809)
# Test: primary screen, population patch clamp on CHO cells stably expressing hERG
# Chain of human ether-à-go-go-related gene (hERG) potassium channel (Q12809 whole entry, looked up): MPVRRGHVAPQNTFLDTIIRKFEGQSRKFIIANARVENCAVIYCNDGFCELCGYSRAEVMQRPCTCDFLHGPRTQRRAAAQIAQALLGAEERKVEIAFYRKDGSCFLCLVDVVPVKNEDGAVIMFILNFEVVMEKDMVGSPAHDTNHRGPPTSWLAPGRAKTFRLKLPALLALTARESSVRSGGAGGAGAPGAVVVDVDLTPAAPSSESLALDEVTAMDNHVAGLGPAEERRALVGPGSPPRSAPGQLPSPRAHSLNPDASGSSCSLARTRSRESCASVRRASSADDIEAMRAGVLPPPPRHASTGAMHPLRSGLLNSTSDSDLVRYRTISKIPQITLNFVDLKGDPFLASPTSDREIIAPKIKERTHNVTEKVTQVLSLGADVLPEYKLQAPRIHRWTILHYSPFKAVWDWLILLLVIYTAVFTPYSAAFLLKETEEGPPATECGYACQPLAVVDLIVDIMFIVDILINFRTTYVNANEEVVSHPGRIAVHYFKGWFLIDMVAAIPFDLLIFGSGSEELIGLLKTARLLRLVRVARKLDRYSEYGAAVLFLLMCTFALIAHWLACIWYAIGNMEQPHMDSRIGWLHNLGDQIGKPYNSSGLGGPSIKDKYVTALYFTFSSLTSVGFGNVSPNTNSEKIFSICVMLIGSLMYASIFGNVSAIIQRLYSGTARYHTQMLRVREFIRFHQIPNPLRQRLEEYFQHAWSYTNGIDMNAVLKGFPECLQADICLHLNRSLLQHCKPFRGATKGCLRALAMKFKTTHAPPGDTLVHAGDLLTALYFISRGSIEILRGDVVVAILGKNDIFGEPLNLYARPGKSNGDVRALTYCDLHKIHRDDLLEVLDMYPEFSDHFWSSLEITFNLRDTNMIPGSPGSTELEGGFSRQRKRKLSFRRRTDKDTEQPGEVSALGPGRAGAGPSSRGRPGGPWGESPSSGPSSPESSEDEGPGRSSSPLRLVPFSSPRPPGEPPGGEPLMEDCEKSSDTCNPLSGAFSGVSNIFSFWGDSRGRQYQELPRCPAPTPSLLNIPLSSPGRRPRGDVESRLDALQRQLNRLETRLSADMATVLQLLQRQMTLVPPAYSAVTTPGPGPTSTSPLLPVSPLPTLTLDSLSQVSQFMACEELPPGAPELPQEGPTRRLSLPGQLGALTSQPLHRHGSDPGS
row,Structure (SMILES),"hERG current change (%, negative = inhibition) at 1uM [%]"
1,COc1ccc(CNC(=O)C2CSCCS2)cc1 (stereo not drawn),13.6
2,COC(=O)c1cc(OC)c(OC)cc1NC(=O)c1cccc(OC)c1OC,10.1
3,O=C(c1cc2nc(-c3ccc(F)cc3)cc(C(F)(F)F)n2n1)N1CCCCC1c1cccnc1 (stereo not drawn),-3.73
4,CS(=O)(=O)N(CC(=O)N1CCCCCC1)c1cccc([N+](=O)[O-])c1,2.29
5,Cc1cc(NC(=O)c2cc(-c3ccncc3)nc3c(C)cccc23)no1,10.1
6,CCCCCCCCCCC[N+](C)(C)CC/C=C1/c2ccccc2Sc2ccc(Cl)cc21.[Br-],8.65
7,Cc1ccc(C(OC(=O)c2ccco2)C(=O)NCc2cccs2)cc1 (stereo not drawn),16.3
8,CCOC(=O)C1=C(COC(=O)c2cc(OC)c(OC)c(OC)c2)NC(=O)NC1C (stereo not drawn),14.3
9,CC1=C(C(=O)Nc2ccccc2)C(c2cccs2)C(C#N)=C(SCC#N)N1 (stereo not drawn),3.14
10,O=C(Nc1cccc(-c2ccc(N3CCOCC3)nn2)c1)c1ccc(Cl)cc1,8.13
11,COc1ccccc1C(=O)Nc1ccc(S(=O)(=O)Nc2cc(C)nc(C)n2)cc1,12.9
12,CCOC(=O)/C(C#N)=C\c1ccc(O)c(OC)c1,12.7
13,Cc1ccc(C2CC(c3cccs3)=NN2C(=O)c2ccc(Br)o2)cc1 (stereo not drawn),14.6
14,CCOc1cccc2sc(N(CCN(C)C)C(=O)c3ccc4ccccc4c3)nc12.Cl,-0.491
15,Clc1ccccc1CN(Cc1ccccc1)C(c1cccs1)c1nnnn1C1CCCC1 (stereo not drawn),18
16,CC1=C(C(=O)Nc2ccccc2)C(c2ccc(C)o2)n2ncnc2N1 (stereo not drawn),13.2
17,COc1ccc(NS(=O)(=O)c2cc(OCC(N)=O)c(C)cc2Cl)cc1,13.1
18,COc1ccc(NC(=O)c2cc(S(=O)(=O)Nc3ccc(OC)cc3)cs2)cc1,6.33
19,CCC(c1nnnn1CCOC)N1CCN(c2cccc(C(F)(F)F)c2)CC1.Cl (stereo not drawn),8.44
20,Cc1noc(C)c1COc1cccc(C(=O)OC(C)C#N)c1 (stereo not drawn),-0.615
21,Cc1ccc2c(c1)N(CC(=O)NCCCN1CC(C)CC(C)C1)C(=O)c1cccnc1O2 (stereo not drawn),6.81
22,COC(=O)c1cc(OC)c(OC)cc1NC(=S)Nc1cccc(C(C)=O)c1,16.5
23,COc1ccc(CN2CCCCCC2)c(C)c1C,-4.27
24,Cc1ccc(CS(=O)(=O)CCC(=O)NCCC2=CCCCC2)cc1,17.9
25,O=C(Nc1cccc2ccccc12)NC1CCS(=O)(=O)C1 (stereo not drawn),18.3
26,COC(=O)c1ccc(N2CCN(CC(=O)c3ccc(-c4ccccc4)cc3)CC2)c([N+](=O)[O-])c1,13.2
27,COc1ccc(-n2nnnc2Sc2ccc(S(=O)(=O)N3CCOCC3)cn2)cc1,7.98

row,Structure (SMILES),"hERG current change (%, negative = inhibition) at 1uM [%]"
1,COc1ccccc1NS(=O)(=O)c1cccc(NC(=O)Nc2cccc(Cl)c2)c1,4.06
2,Cc1ccc2oc(C(=O)Nc3nnc(C)s3)c(C)c2c1,6.82
3,O=C(CNC(=O)c1ccccn1)N/N=C/c1ccc2c(c1)OCO2,2.26
4,O=C(CN1C(=O)c2cccnc2Oc2ccc(Cl)cc21)NCCc1ccccc1,2.5
5,Cc1ccc2c(CC(=O)NC3=NCCS3)coc2c1,7.23
6,Oc1ccccc1N=Cc1sc2ccccc2c1Cl,0.441
7,Cc1ccc2c(c1)Cc1nc3ccccc3nc1-2,-8.19
8,O=C(C1=C[C@@H](c2csc3ccccc23)C[C@@H](OCc2ccc(CO)cc2)O1)N1CCN(Cc2ccccc2)CC1,11.2
9,CC(C)CN(CC(C)C)C(=O)CN1c2cccc3cccc(c23)S1(=O)=O,17.9
10,Cc1cccc(CCNC(=O)c2cccc3c2C(=O)N(C2CCCCC2)C3)c1,6.77
11,Cc1csc(CNC(=O)CC2C(=O)NCCN2Cc2ccc(F)cc2Cl)n1 (stereo not drawn),2.69
12,Cc1cc(NC(=O)CSc2nc(N)c(NC(=O)c3ccco3)c(=O)[nH]2)no1,14.2
13,COc1ccc(C)cc1NC(=O)c1sc2ncn(CC(=O)N3CCCCC3)c(=O)c2c1C,12
14,COc1cccc(OC(C)c2ccnc3nc(/N=C/N(C)C)nn23)c1 (stereo not drawn),12
15,COCCCNc1ncnc2ccc(C)cc12,13.4
16,COc1ccc(Nc2oc(-c3ccc(Cl)cc3)nc2C#N)cc1,9.41
17,Cc1noc(C)c1COC(=O)C1(c2cccc(F)c2)CCCC1,12.1
18,Cc1ccc2c(c1)c1c(n2CC(O)CN2C(=O)CNC2=O)C(=O)CCC1 (stereo not drawn),-9.64
19,Cc1onc(-c2ccccc2)c1C(=O)N(CC(C)C)c1c(N)n(CC(C)C)c(=O)[nH]c1=O,1.54
20,O=C(CCc1c[nH]c2ccccc12)NCCc1ccc2c(c1)OCCO2,12
21,CCC(C)c1ccc(OCCn2ccnc2)cc1.O=C(O)C(=O)O (stereo not drawn),1.76
22,Cc1ccccc1C(=O)N[C@H](C(=O)Nc1ccc(Cl)c(Cl)c1)C(C)C,14.7
23,N#C/C(=C\c1cccc(Oc2ccccc2)c1)C(=O)N1CCOCC1,9.1
24,COC(=O)C1=CN(CC2CCCO2)C=C(C(=O)OC)C1c1cc(OC)c(OC)c(OC)c1 (stereo not drawn),4.28
25,O=C(NNC(=O)c1ccc(Br)s1)c1cccc(S(=O)(=O)N2CCCC2)c1,5.4
26,COc1cccc(C(=O)Nc2ccc3nc(N4CCN(c5ncccn5)CC4)cc(C)c3c2)c1OC,-4.55
27,Cc1cccc(N2CCN(S(=O)(=O)c3c(C)[nH]c(C)c3C(=O)N3CCCC3)CC2C)c1 (stereo not drawn),-15.9
